{"source": "paper PMC4336329", "about": "(PLoS ONE, 2015)", "note": "The whole screen tested about 310,000 compounds, of which about 14,000 (4.5%) showed an effect of 50% or more. The effect is printed as a negative number. The list shows a part of the results.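 Note: peak tail current of the secondary pulse compared with the same well before compound.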"}
{"molecular_target": "human ether-à-go-go-related gene (hERG) potassium channel (human, UniProt Q12809)", "sequence (Q12809 whole entry, looked up)": "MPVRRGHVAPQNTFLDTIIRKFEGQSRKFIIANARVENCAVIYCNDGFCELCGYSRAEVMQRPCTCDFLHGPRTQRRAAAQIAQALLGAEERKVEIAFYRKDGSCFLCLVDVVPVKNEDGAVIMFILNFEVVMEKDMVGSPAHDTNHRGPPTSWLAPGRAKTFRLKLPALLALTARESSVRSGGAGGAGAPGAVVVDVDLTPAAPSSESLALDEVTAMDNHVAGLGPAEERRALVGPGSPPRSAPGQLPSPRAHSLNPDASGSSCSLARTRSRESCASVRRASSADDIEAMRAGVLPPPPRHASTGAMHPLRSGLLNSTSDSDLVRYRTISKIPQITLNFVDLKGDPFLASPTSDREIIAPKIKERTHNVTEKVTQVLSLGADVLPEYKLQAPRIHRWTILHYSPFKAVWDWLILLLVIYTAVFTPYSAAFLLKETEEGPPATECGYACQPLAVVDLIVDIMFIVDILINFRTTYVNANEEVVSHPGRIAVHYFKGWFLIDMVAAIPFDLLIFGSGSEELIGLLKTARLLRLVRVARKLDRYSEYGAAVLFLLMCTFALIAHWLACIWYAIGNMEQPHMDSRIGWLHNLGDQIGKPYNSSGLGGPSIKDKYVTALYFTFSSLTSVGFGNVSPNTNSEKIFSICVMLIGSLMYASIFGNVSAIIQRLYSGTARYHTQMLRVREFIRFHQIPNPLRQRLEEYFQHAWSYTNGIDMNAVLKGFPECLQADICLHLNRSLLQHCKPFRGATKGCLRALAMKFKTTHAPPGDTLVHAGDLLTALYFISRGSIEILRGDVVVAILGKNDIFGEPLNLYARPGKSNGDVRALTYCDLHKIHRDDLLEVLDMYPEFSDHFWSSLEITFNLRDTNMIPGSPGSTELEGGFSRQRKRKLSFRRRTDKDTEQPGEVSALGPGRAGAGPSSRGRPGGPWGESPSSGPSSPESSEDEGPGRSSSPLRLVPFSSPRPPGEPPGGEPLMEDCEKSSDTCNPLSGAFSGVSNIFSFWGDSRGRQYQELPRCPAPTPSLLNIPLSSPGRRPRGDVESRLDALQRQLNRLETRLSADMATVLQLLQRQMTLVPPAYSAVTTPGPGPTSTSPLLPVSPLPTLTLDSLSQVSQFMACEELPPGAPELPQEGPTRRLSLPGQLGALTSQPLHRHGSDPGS", "assay": "primary screen, population patch clamp on CHO cells stably expressing hERG", "units": {"hERG current change (%, negative = inhibition) at 10uM": "%"}}
{"compound": "Cl.OCc1ccccc1CNCc1ccccc1", "hERG current change (%, negative = inhibition) at 10uM": 3.19}
{"compound": "O=C(NCc1ccccc1Cl)c1cnc2n(c1=O)CCS2", "hERG current change (%, negative = inhibition) at 10uM": -0.561}
{"compound": "O=C(N/N=C/c1cn(-c2ccccc2)nc1-c1ccc2c(c1)OCCO2)c1ccncc1", "hERG current change (%, negative = inhibition) at 10uM": 15.2}
{"compound": "CC(=O)C1C(c2ccc(OC(F)F)cc2)NC(=O)NC1(O)C(F)(F)F", "note": "(stereo not drawn)", "hERG current change (%, negative = inhibition) at 10uM": -7.21}
{"compound": "CS(=O)(=O)NCCSCc1ccccc1", "hERG current change (%, negative = inhibition) at 10uM": -13.2}
{"compound": "O=C(NCCCn1ccnc1)/C(=C/c1ccco1)NC(=O)c1cccs1", "hERG current change (%, negative = inhibition) at 10uM": -53.2}
{"compound": "CC1=NCCN1S(=O)(=O)c1cc([N+](=O)[O-])ccc1Cl", "hERG current change (%, negative = inhibition) at 10uM": 4.1}
{"compound": "CN(C)Cc1ccc(F)cc1Sc1ccc(Cl)cc1Cl.Cl", "hERG current change (%, negative = inhibition) at 10uM": 10.3}
{"compound": "CCN(CC)CC(=O)NN=C(c1ccccc1)c1ccccc1", "hERG current change (%, negative = inhibition) at 10uM": -77.6}
{"compound": "O=[N+]([O-])C(=C1SCCS1)C(=C(Cl)Cl)N1CCCCC1", "hERG current change (%, negative = inhibition) at 10uM": 15.5}
{"compound": "CCCCOc1ccc(CNC(=S)N/N=C/c2ccc(OC)c(OC)c2)cc1", "hERG current change (%, negative = inhibition) at 10uM": 16.7}
{"compound": "CC1OC(Nc2ccc(OC(F)(F)F)cc2)C(O)C(O)C1O", "note": "(stereo not drawn)", "hERG current change (%, negative = inhibition) at 10uM": 0.769}
{"compound": "N#CCC(=O)N/N=C/c1ccc(OC2CSC2)cc1", "hERG current change (%, negative = inhibition) at 10uM": 36.2}
{"compound": "Cc1cc(C)c2cc(C(c3nnnn3CC3CCCO3)N3CCN4CCCC4C3)c(=O)[nH]c2c1", "note": "(stereo not drawn)", "hERG current change (%, negative = inhibition) at 10uM": -14.7}
{"compound": "O=C(CN1CCCC1)Nc1ccc(Oc2ccc(NC(=O)CN3CCCC3)cc2)cc1", "hERG current change (%, negative = inhibition) at 10uM": 17.3}
{"compound": "Cc1ccc(C2=NCCNC2=O)c(C)c1", "hERG current change (%, negative = inhibition) at 10uM": 0.813}
{"compound": "O=[N+]([O-])c1ccc2nc(N3CCCC3)sc2c1", "hERG current change (%, negative = inhibition) at 10uM": 15.8}
{"compound": "Cc1occc1C(=O)Nc1ccccc1C(=O)O", "hERG current change (%, negative = inhibition) at 10uM": 2.37}
{"compound": "Cl.N=c1sccn1CC(=O)Nc1ccccc1Cc1ccccc1", "hERG current change (%, negative = inhibition) at 10uM": -17.3}
{"compound": "CCN(CC)C(=O)CSc1nnc([C@H](CCSC)NC(=O)OC(C)(C)C)o1", "hERG current change (%, negative = inhibition) at 10uM": -8.26}
{"compound": "Cc1ccccc1NC(=S)NCCC(c1ccccc1)c1ccccc1", "hERG current change (%, negative = inhibition) at 10uM": 2.76}
{"compound": "Cc1cc(=O)n2c(n1)NC(=NCc1ccccc1)NC2c1ccccc1", "note": "(stereo not drawn)", "hERG current change (%, negative = inhibition) at 10uM": 10.4}
{"compound": "CC(C)(C)c1ccc(-c2nnc3sc(-c4ccncc4)nn23)cc1", "hERG current change (%, negative = inhibition) at 10uM": -10.9}
{"compound": "COC(=O)c1ccccc1S(=O)(=O)NNC(=O)c1ccccc1-n1cccc1", "hERG current change (%, negative = inhibition) at 10uM": 18.9}
{"compound": "COc1ccc(S(=O)(=O)NC(C)(C)C)cc1-c1nnc2c3ccccc3c(C)nn12", "hERG current change (%, negative = inhibition) at 10uM": -5.05}
{"compound": "Cc1nc2ccc(Cl)cc2c(-c2ccccc2)c1C(=O)N(C)C.Cl", "hERG current change (%, negative = inhibition) at 10uM": -5.56}
{"compound": "O=C(N/N=C/C1CC2CCC1C2)c1ccc2c(c1)OCO2", "note": "(stereo not drawn)", "hERG current change (%, negative = inhibition) at 10uM": -2.35}
{"compound": "CC(=O)NS(=O)(=O)c1ccc(N=NN2CCCCC2)cc1", "hERG current change (%, negative = inhibition) at 10uM": -1.66}
{"compound": "O=C1CC(N2CCN(C(c3ccccc3)c3ccccc3)CC2)C(=O)N1Cc1ccc(N2CCCC2=O)cc1", "note": "(stereo not drawn)", "hERG current change (%, negative = inhibition) at 10uM": -12.3}
{"compound": "Fc1ccc2c(c1)Sc1ccc(Cl)cc1CC2N1CCN(CCC2OCCO2)CC1", "note": "(stereo not drawn)", "hERG current change (%, negative = inhibition) at 10uM": -8.68}
{"compound": "O=C(c1ccc(Cl)c(Cl)c1)N(Cc1ccco1)c1ccc(O)cc1", "hERG current change (%, negative = inhibition) at 10uM": -17}
{"compound": "O=S(=O)(c1ccc(NC(=S)NCc2ccco2)cc1)N1CCCCC1", "hERG current change (%, negative = inhibition) at 10uM": 4.65}
{"compound": "CC(=O)Cn1cnc2scc(-c3ccc(C)c(C)c3)c2c1=O", "hERG current change (%, negative = inhibition) at 10uM": 13}
{"compound": "O=C(NCc1cccnc1)C1CCC(c2ccc(Cl)cc2)CC1", "note": "(stereo not drawn)", "hERG current change (%, negative = inhibition) at 10uM": -15.9}
{"compound": "CCOC(=O)CSc1[nH]c(=O)cc(C)c1C#N", "hERG current change (%, negative = inhibition) at 10uM": 10.1}
{"compound": "O=C(NC1CCCC1)c1ccc(S(=O)(=O)N2CCOCC2)cc1", "hERG current change (%, negative = inhibition) at 10uM": 2.34}
{"compound": "Cc1ccccc1CCNC(=O)c1ccc(Cl)c(S(=O)(=O)N2CC(C)OC(C)C2)c1", "note": "(stereo not drawn)", "hERG current change (%, negative = inhibition) at 10uM": -10.7}
{"compound": "CC(C)C[C@H]1CN=C(Nc2ccccc2)N1CC(C)C", "hERG current change (%, negative = inhibition) at 10uM": -3.04}
{"compound": "O=C(CCc1ccccc1)C(=O)N1CCCC(C(=O)c2cccc(Cl)c2)C1", "note": "(stereo not drawn)", "hERG current change (%, negative = inhibition) at 10uM": -18.2}
{"compound": "CCOC(=O)c1cnc2c(C)c(-c3ccccc3)[nH]n2c1=O", "hERG current change (%, negative = inhibition) at 10uM": 14.5}
{"compound": "COc1ccc(N2CCN(C(CNC(=O)C(=O)NCc3ccncc3)c3ccco3)CC2)cc1", "note": "(stereo not drawn)", "hERG current change (%, negative = inhibition) at 10uM": -6.1}
{"compound": "Cc1coc2c1c(C)cc1oc(=O)c(CC(=O)NCCCN3CCCC3=O)c(C)c12", "hERG current change (%, negative = inhibition) at 10uM": -7.63}
{"compound": "Cc1ccc(-n2c(SCC(=O)NCc3ccco3)nnc2-c2cccnc2)c(C)c1", "hERG current change (%, negative = inhibition) at 10uM": -34.4}
{"compound": "Cc1cccc(CN2CCN(CC(=O)NCCCN3CCCC3=O)C2=O)c1", "hERG current change (%, negative = inhibition) at 10uM": 7}
{"compound": "CSCC(=O)NC1CCCc2c1cnn2-c1ccc(C)c(C)c1", "note": "(stereo not drawn)", "hERG current change (%, negative = inhibition) at 10uM": -28}
{"compound": "CCCN(CCC)S(=O)(=O)c1ccc(C(=O)Nc2nnc(-c3cccc(OC)c3)o2)cc1", "hERG current change (%, negative = inhibition) at 10uM": 4.14}
{"compound": "Cc1cc(=O)oc2cc(OC(C)C(=O)NCCc3ccc(S(N)(=O)=O)cc3)ccc12", "note": "(stereo not drawn)", "hERG current change (%, negative = inhibition) at 10uM": 13.5}
{"compound": "Cc1ccc(NC(=O)CN2C(=O)NC3(CCCCCC3)C2=O)cc1Cl", "hERG current change (%, negative = inhibition) at 10uM": 13.4}
{"compound": "Cc1ccc(NC(=O)CSCC(=O)N2c3ccccc3CCc3ccccc32)cc1", "hERG current change (%, negative = inhibition) at 10uM": 7.66}
{"compound": "COc1ccc(NC(=O)CC2Oc3ccccc3NC2=O)c(OC)c1", "note": "(stereo not drawn)", "hERG current change (%, negative = inhibition) at 10uM": 24.4}
{"compound": "NC(=O)N1OCC2COc3ccc4ccccc4c3C21", "note": "(stereo not drawn)", "hERG current change (%, negative = inhibition) at 10uM": -26.9}
{"compound": "Cl.O=C(OCCN1CCCCC1)c1cc2ccccc2o1", "hERG current change (%, negative = inhibition) at 10uM": -13.5}
{"compound": "COc1ccccc1NS(=O)(=O)c1ccc(C)c(C(=O)NCC2(N(C)C)CCCCC2)c1", "hERG current change (%, negative = inhibition) at 10uM": -42.9}
{"compound": "O=C(CN(C(=O)c1csnn1)c1ccc(Cl)cc1)NCc1ccc2c(c1)OCO2", "hERG current change (%, negative = inhibition) at 10uM": 24.3}
{"compound": "Cc1oc(CC(C)C)cc1C(=O)NCCCC(=O)O", "hERG current change (%, negative = inhibition) at 10uM": 13.6}
{"compound": "O=[N+]([O-])c1ccc(/C=N/Nc2cc(Cl)nc(-c3ccccc3)n2)cc1", "hERG current change (%, negative = inhibition) at 10uM": 2.34}
{"compound": "Cc1ccc(C2=NS(=O)(=O)N(C)C(C(=O)NCc3cccs3)=C2)cc1", "hERG current change (%, negative = inhibition) at 10uM": -8.57}
